# In all, about 4,100 sequences were measured (“relative CpG methylation activity (normalised to average over all NNNCGNNN flanks)”: median about 0.87, highest 2% from about 2.4 on). The list shows a part of the results.
# Molecular target: DNMT3A catalytic domain (mouse) (UniProt O88508)
# Assay: relative CpG methylation activity (normalised to average over all NNNCGNNN flanks) (relative (1 = mean)); higher = more methylation of the central CpG
# Settings: system: in vitro, murine catalytic domain; CpG state: hemimethylated substrate pool; residues: 608-908
# Outline: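 Pooled dsDNA substrates with a central CpG inside 10 random flanking nucleotides were methylated by murine DNMT3A or DNMT3B catalytic domain with 0.8 mM S-adenosyl-L-methionine in HEPES pH 7.5 buffer for 60 min at 37 °C. The DNA then went through proteinase K, BsaI-HFv2 digestion, hairpin ligation, bisulfite conversion and two-step PCR before Illumina sequencing. Relative methylation activity is the average methylation of each context with three flanking bases per side, divided by the mean over all contexts. Each experiment had two independent repeats.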
row,Sequence,relative CpG methylation activity
1,CATCGTAC,0.536
2,TATCGGCG,0.49
3,AGTCGACC,0.328
4,TATCGCCC,1.77
5,GCACGCAG,0.978
6,GTTCGACA,0.963
7,TCTCGCTT,2.09
8,AGGCGCGG,0.461
9,TGGCGGAC,0.592
10,TTACGCTC,2.74
11,CATCGCTG,0.848
12,AGGCGTCT,1.04
13,CCACGTTC,1.24
14,TCACGCCA,1.78
15,CATCGTTT,0.474
16,CTCCGTAT,1.01
17,TACCGTCA,1.45
18,TGGCGTTA,0.37
19,GTCCGTGT,0.376
20,GGCCGTTT,0.267
21,ATCCGTCC,2.61
22,TACCGGCC,0.938
23,ACGCGGGT,0.542
24,TTTCGCTC,2.02
25,ACGCGCGG,0.42

row,Sequence,relative CpG methylation activity
1,CGACGGAT,0.66
2,CGTCGGTA,0.511
3,GTACGTGG,0.872
4,TCGCGAAG,0.36
5,CCGCGTTA,0.814
6,ACTCGCTC,1.79
7,TTCCGAAG,1.45
8,GGCCGCCA,1.4
9,CGTCGGAA,0.698
10,CTCCGAAA,1.63
11,TCACGCCG,2.08
12,AGTCGGTA,0.57
13,GTGCGCCC,2.22
14,GACCGCTG,1.2
15,TTTCGGTG,0.682
16,GCGCGCGG,0.181
17,ATACGATT,1.36
18,GGTCGTTC,0.368
19,GACCGTTA,0.872
20,CATCGCAC,1.1
21,CTGCGGGG,0.732
22,TCCCGCAA,0.962
23,TGTCGCAC,0.888
24,AAGCGCAT,0.582
25,CCTCGAGA,0.73

row,Sequence,relative CpG methylation activity
1,ACACGTAG,0.863
2,GCACGCAC,1.22
3,TCACGCGA,0.929
4,TCTCGGCA,0.913
5,CGGCGTTC,0.663
6,CCACGAGT,1.26
7,CGCCGGGA,0.437
8,ACGCGCAT,1.07
9,GTACGAAC,1.99
10,CACCGAGT,0.933
11,TCCCGAAT,0.738
12,ATTCGAAC,1.19
13,TCTCGCTC,1.84
14,ACGCGAAA,0.833
15,TTGCGGCT,1.72
16,GCCCGTGG,0.141
17,TAACGAGT,0.643
18,GCACGCTA,1.64
19,TCACGGCA,1.27
20,CCGCGATC,0.985
21,CGACGGGC,0.798
22,GAACGTCG,1.25
23,AATCGGGC,0.318
24,TTACGCGC,2.44
25,ACACGAGC,1.54

row,Sequence,relative CpG methylation activity
1,TAGCGCTG,0.34
2,CCTCGTAT,0.651
3,ACTCGTTT,0.982
4,AAGCGTTG,0.206
5,TCTCGAAC,1.13
6,CAGCGTAG,0.246
7,CTCCGGTC,1.8
8,CATCGAGC,0.882
9,TCACGGTA,1.29
10,CGGCGCGC,0.516
11,CTTCGGCT,0.976
12,AGACGGTC,1.15
13,ATACGTTT,1.52
14,ATGCGCGG,0.425
15,CAACGTGA,0.375
16,CGTCGTAT,0.388
17,CCGCGCCG,1.13
18,ACACGAGA,1.43
19,TTACGCCA,2.33
20,GCACGTCC,1.91
21,ACCCGGGC,0.801
22,GGCCGTAG,0.263
23,GAGCGTCA,1.14
24,GAGCGAAC,1.06
25,AGCCGAGC,1.26

row,Sequence,relative CpG methylation activity
1,TGTCGAGA,0.637
2,TGGCGCAA,0.281
3,TAACGGTG,0.512
4,AGTCGACG,0.282
5,GTTCGGAT,0.575
6,GGCCGACA,0.948
7,CCTCGCGG,0.283
8,CATCGCGG,0.315
9,TCGCGCTC,1.88
10,ATACGTTG,1.23
11,CGGCGGCA,0.896
12,TATCGTAC,0.576
13,AACCGCTA,1.29
14,TTGCGTGA,0.64
15,CCTCGTAA,1.17
16,CGACGCAA,0.699
17,TGTCGCCT,1.47
18,ATTCGGTT,0.706
19,CCGCGCGG,0.577
20,CGCCGTAG,0.323
21,CATCGAAT,0.533
22,TCCCGCGA,0.863
23,GCCCGCTA,1.3
24,TCACGGTT,0.763
25,TCTCGCTG,1.57

row,Sequence,relative CpG methylation activity
1,GACCGTCA,1.16
2,AGCCGTTT,0.42
3,CCTCGAGC,1.18
4,TTGCGTTT,1.35
5,CAACGTTG,0.316
6,TTGCGAGT,1.34
7,TTTCGGAG,0.481
8,AAGCGCAC,0.756
9,TACCGATA,0.709
10,ATGCGGGT,0.741
11,GGTCGCGG,0.102
12,GTTCGGGT,0.638
13,GTACGGTC,1.65
14,ACGCGAAG,0.553
15,CTGCGCTG,1.56
16,TTTCGTCT,1.99
17,CCTCGACG,0.719
18,CAGCGGTA,0.346
19,TATCGAAC,0.633
20,TGGCGATC,0.882
21,ATACGAAA,2.06
22,GTGCGTAA,1.42
23,CTTCGCAC,1.84
24,TCGCGTAG,0.412
25,GACCGCCA,1.34

row,Sequence,relative CpG methylation activity
1,TAACGCTA,0.705
2,GTTCGAGC,1.09
3,CCGCGCAA,1.17
4,CTACGAGC,2.44
5,GATCGAGT,0.285
6,CGACGCTC,1.38
7,ATACGCAG,1.52
8,TGGCGGGA,0.3
9,ATTCGTTC,1.08
10,CTCCGAGA,1.34
11,CAGCGGAT,0.29
12,GCACGGAC,1.33
13,TCACGATT,0.819
14,ATACGCCC,2.85
15,ATGCGGTA,1.15
16,CAGCGGTC,0.48
17,GCCCGTAT,0.701
18,CGACGCTG,0.919
19,TGCCGTTT,0.636
20,CGTCGAGT,0.421
21,AGCCGGTG,0.269
22,TTTCGGGG,0.303

# From the supplement of paper PMC7335073
